The experiment concerns NCI-H322M lung. Description: NCI tumour cell line growth inhibition, 48 h.

SMILES strings stand for the structures.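 Each compound was tested at five concentrations against cells in 96-well plates for 48 hours. Abbreviation: GI50, concentration required for 50% inhibition of growth. Definition used: TGI = concentration required for complete inhibition of growth.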

Turning to `COc1cc(/C=C/C(=O)c2ccc(Nc3nc(Nc4ccc(F)cc4)nc(Nc4ccc(F)cc4)n3)cc2)cc(OC)c1OC`, the GI50 is 74.7 µM and the TGI was > 100 µM.

In the case of `O=C(O)CCCN1CCCCC1`, the TGI was > 100 µM.

In the case of `CCCCCCCCSC1=CC(=O)C(OC)=C(OC)C1=O`, the GI50 was 22.7 µM and the TGI was determined as 94.3 µM.

Turning to `NC12c3c4cccc3Oc3cccc(c31)Oc1cccc(c12)O4`, the TGI is > 50 µM.

In the case of `COC(=O)C1Cc2c([nH]c3ccccc23)C=N1` (stereo not drawn), the TGI is > 100 µM.

In the case of `COc1cc(-c2ccc(-c3ccc(C(=N)N)s3)s2)cc(OC)c1OC`, the GI50 is 2.38 µM and the TGI came to 6.51 µM.

Consider `Cc1ccc(/C=C(\C#N)n2nnc3cc(F)c(F)cc32)cc1`, for which the GI50 is 2.98 µM and the TGI turned out to be 9.13 µM.

Regarding `CCc1nnc2sc(-c3ccc(-c4ccc(Cl)cc4Cl)o3)nn12`, the TGI is > 100 µM.

`Cc1cc(Cl)ccc1N1C(=O)C(=O)C(c2nc3ccccc3s2)C(=O)C1=O`: the TGI was > 100 µM.

Turning to `Cc1c2cc[n+](C)cc2c(COC2OC(CO)C(O)C2O)c2c3ccccc3n(C)c12` (stereo not drawn), the TGI was > 100 µM.

`CC1(c2cccc(C3CCC4(C=CC3=O)OCCO4)c2)OCCO1` (stereo not drawn) gave a TGI of 45.5 µM.

For the molecule `CCC(=O)O[C@@H]1C2C(OC(C)=O)C34COC(C)([C@@H]3C3C(C[C@]3(C)OC(C)=O)[C@@H](OC(=O)c3ccccc3)C4=O)[C@H](OC(C)=O)[C@@]2(OC(C)=O)C[C@@H]1C` (stereo partly drawn), the TGI is > 100 µM.

For `CCCNc1nc(-c2ccc(OC)cc2)nc2ccccc12`, the GI50 is 15.3 µM and the TGI stood at 29.6 µM.

On to `CCOC(=O)/C(O)=C(\C=N\C(=S)Nc1ccc(Cl)c(Cl)c1)C(=O)OCC`, for which the TGI was > 100 µM.

For `N#CC(C#N)=C1NC(=O)C(c2ccccc2)C(=O)N1` (stereo not drawn), the TGI was > 100 µM.

Consider `COCOc1cc(OC)ccc1C=O`, for which the TGI was > 100 µM.

In the case of `CCCCCCCCCCCCC(Br)C(=O)SCCNC(=O)CCNC(=O)[C@@H](O)C(C)(C)COP(=O)(O)OP(=O)(O)OCC1OC(n2cnc3c(N)ncnc32)C(O)C1OP(=O)(O)O` (stereo partly drawn), the TGI was > 56.5 µM.

For the molecule `NCCOc1ccccn1`, the TGI is > 100 µM.

In the case of `CN(C)/[N+]([O-])=N/Oc1cc(Nc2ccc(C(=O)O)cc2)c([N+](=O)[O-])cc1[N+](=O)[O-]`, the GI50 was 10.8 µM and the TGI was 24.6 µM.

With `O=C1c2cc3c(cc2-c2c1c1ccc([N+](=O)[O-])cc1c(=O)n2CCCCl)OCO3`, the GI50 is 1.68 µM and the TGI was > 100 µM.

`CCN1C(=O)N(c2c(F)c(OC)cc(OC)c2F)Cc2cnc3[nH]c(CN4CCOCC4)cc3c21`: the GI50 was 1.21 µM and the TGI was > 100 µM.

Turning to `Cn1c(=O)c(Cc2ccc(F)cc2F)cc2cnc(NC3CCOCC3)nc21`, the GI50 was > 25 µM and the TGI was > 25 µM.

For the molecule `CCC(C#N)N(Cc1cccc(CN(C(C)=O)C(C#N)CC)c1)C(C)=O` (stereo not drawn), the TGI is > 100 µM.

As to `Cn1cc(C(=O)C2CCCCC2)ccc1=O`, the TGI is > 100 µM.

As to `CCOc1ccc(NC(=O)C2=C(C)NC(C)=C(C(=O)Nc3ccc(OCC)cc3)C2c2ccc([N+](=O)[O-])cc2)cc1`, the TGI is > 100 µM.

`CCOc1ccc(N=NC2C(=O)N(C(=O)CC(=O)Nc3ccc(Cl)cc3)N=C2C)cc1` (stereo not drawn): the TGI was > 100 µM.

Regarding `Cc1c(Cl)cccc1NC(=O)C(=O)C1C(=O)NC(=O)NC1=O`, the TGI was > 100 µM.

Turning to `CO/N=C1/c2cc(OC)ccc2-c2c(NOC)nc3ccccc3c21`, the GI50 is 28.7 µM and the TGI is > 100 µM.

Regarding `O=[N+]([O-])c1ccccc1S(=O)(=O)N1CCCc2cc(Cl)ccc21`, the TGI was > 100 µM.

As to `Cc1ccc(S(=O)(=O)N2CCCCC2CCO)cc1` (stereo not drawn), the TGI was > 100 µM.

As for `Cc1cc(SCC(=O)c2ccc(Br)cc2)cc(C)[o+]1`, the TGI was > 100 µM.

As for `Cc1nc2cc(O)c(O)cc2cc1Oc1ccc(NC(=O)Nc2ccc(Cl)c(Cl)c2)cc1`, the GI50 was 14.1 µM and the TGI was > 32.5 µM.

Turning to `Cn1c2ccccc2c2c3c(c4c5ccccc5n(CCCCCC#N)c4c21)C(=O)N(O)C3=O`, the GI50 is 2.65 µM and the TGI worked out at 10.3 µM.

For the molecule `C=C1C(=O)OC2C(C)C3C=CC(=O)[C@@]3(C)C(OC(=O)/C(C)=C/C)C1[C@@H]2OC(C)=O` (stereo partly drawn), the TGI came out at 3.9 µM.

Molecule `CCN(CCCl)CCNc1c2ccccc2nc2ccc(OC)cc12` displayed a TGI of 3.92 µM.

For `O=C1/C(=C/c2ccc(O)cc2)CCC1CNc1ccc(Cl)cc1` (stereo not drawn), the TGI amounted to 24.3 µM.

In the case of `O=C(NC(=S)NS(=O)(=O)c1ccc(N2N=C3c4ccccc4CC3C2c2cccs2)cc1)c1ccccc1` (stereo not drawn), the GI50 is 14.2 µM and the TGI amounted to 57.5 µM.

In the case of `c1ccc(/C(=N/Nc2cnccn2)c2ncccn2)cc1`, the TGI was > 100 µM.

As to `Brc1ccc(-c2ccc(-c3ccc(Br)s3)s2)s1`, the TGI was > 100 µM.

For the molecule `CCOC(=O)Cc1csc(/N=C\c2c(O)c3ccccc3oc2=O)n1`, the TGI is > 100 µM.

In the case of `CC1OC(OC2C(CO)OC(O[C@H]3CC[C@@]4(C)C(=CC[C@H]5[C@@H]6C[C@@H]7O[C@](O)(CC[C@@H](C)COC8OC(CO)C(O)C(O)C8O)[C@@H](C)[C@@H]7[C@@]6(C)CC[C@@H]54)C3)C(OC3OC(C)C(O)C(O)C3O)C2O)C(O)C(O)C1O` (stereo partly drawn), the GI50 was 3.97 µM and the TGI was 14 µM.

Consider `Cc1cccc(Nc2cn(CCOc3ccccc3)c(=O)[nH]c2=O)c1`, for which the TGI is > 100 µM.

As for `Cn1c2ccccc2n2c(=O)c(-c3ccc(O)cc3)nnc12`, the TGI was > 100 µM.

For `COc1ccc2c(c1)CC[C@@H]1C2CC[C@]2(C)OC(=O)CCC12` (stereo partly drawn), the TGI was > 100 µM.

The record behind these values is PubChem BioAssay (NCI).
